# Test results as given in the supplement of paper PMC8728848.
# Some of the results follow.
# Assays:
# Assay in all cases: glycan array binding signal (z-score within array); higher = stronger binding
# Details in all cases: glycan notation: IUPAC condensed, linker removed; mutation: Y228W
# [1] = target: GalNAc(b1-4)GlcNAc
# In short: (§1)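 Negative Z-scores can be read as non-binding. The Z-score is calculated within each array and then averaged across arrays of one protein sequence at different concentrations or buffers and across linkers. Arrays, 3228 in all, were curated from the Consortium for Functional Glycomics database and kept only where the protein sequence was available.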
# [2] = target: GalNAc(b1-4)GlcNAc(b1-2)Man
# In short: as §1
# [3] = target: GalNAc(b1-4)GlcNAc(b1-2)Man(a1-3)[GalNAc(b1-4)GlcNAc(b1-2)Man(a1-6)]Man(b1-4)GlcNAc(b1-4)GlcNAc
# In short: as §1
# [4] = target: GalNAc(b1-4)GlcNAc(b1-3)GalNAc(b1-4)GlcNAc
# In short: as §1
# [5] = target: GalNAc(b1-4)GlcNAc6S
# In short: as §1
# [6] = target: GalNAc(b1-6)GalNAc
# In short: as §1
# [7] = target: GalNAc3S(b1-4)GlcNAc
# In short: as §1
# [8] = target: GalNAc3S(b1-4)GlcNAc3S
# In short: as §1
# [9] = target: GalNAc3S(b1-4)[Fuc(a1-3)]GlcNAc
# In short: as §1
# [10] = target: GalNAc4S6S(b1-4)GlcNAc
# In short: as §1
# [11] = target: GalNAc6S(b1-4)GlcNAc
# In short: as §1
# [12] = target: Glc(a1-4)Glc
# In short: as §1
# [13] = target: Glc(a1-4)Glc(a1-4)Glc(a1-4)Glc
# In short: as §1
# [14] = target: Glc(a1-6)Glc(a1-6)Glc
# In short: as §1
# [15] = target: Glc(a1-6)Glc(a1-6)Glc(a1-6)Glc
# In short: as §1
# [16] = target: Glc(b1-4)Glc
# In short: as §1
# [17] = target: Glc(b1-6)Glc
# In short: as §1
# [18] = target: GlcA(b1-3)Gal
# In short: as §1
# [19] = target: GlcA(b1-3)GlcNAc
# In short: as §1
# [20] = target: GlcA(b1-6)Gal
# In short: as §1
# [21] = target: GlcA3S(b1-3)Gal(b1-4)GlcNAc(b1-2)Man
# In short: as §1
# [22] = target: GlcA3S(b1-3)Gal(b1-4)GlcNAc(b1-3)Gal(b1-4)Glc
# In short: as §1
# [23] = target: GlcNAc(a1-3)Gal(b1-4)GlcNAc
# In short: as §1
# [24] = target: GlcNAc(a1-4)Gal(b1-3)GlcNAc
# In short: as §1
# [25] = target: GlcNAc(a1-4)Gal(b1-4)GalNAc
# In short: as §1
# [26] = target: GlcNAc(a1-4)Gal(b1-4)GlcNAc
# In short: as §1
# [27] = target: GlcNAc(a1-4)Gal(b1-4)GlcNAc(b1-3)Gal(b1-4)Glc
# In short: as §1
# [28] = target: GlcNAc(a1-4)Gal(b1-4)GlcNAc(b1-3)Gal(b1-4)GlcNAc
# In short: as §1
# [29] = target: GlcNAc(a1-4)Gal(b1-4)GlcNAc(b1-3)Gal(b1-4)GlcNAc(b1-3)Gal(b1-4)GlcNAc
# In short: as §1
# [30] = target: GlcNAc(a1-4)Gal(b1-4)GlcNAc(b1-3)Gal(b1-4)[Fuc(a1-3)]GlcNAc(b1-3)Gal(b1-4)[Fuc(a1-3)]GlcNAc
# In short: as §1
binder,measurement,setting,value
"Epa1-NP-mutant-Y228W (Candida glabrata), Q6VBJ0 (protein) MILNPALFLNKCVCIYTTLILLLLTNGGYATSSNDISLASKDPTTFPLGCSPDITTPKKGLSMELYSYDFRKKGSYPCWDAAYLDPNYPRTGYKSHRLLAKVDGVTGNINFYYHATKGCTPQLGHLPASYNYPKPLTMTNFTMLLYGYFRPKVTGFHTFTISADDLLFVNFGAGNAFDCCRRDSSADHFGNYQAYAIWGSKTAKDELTVHLDAGVYYPIRLFYNNREWDGALSFTFKTESNENTVSDFSEYFFSLDDTEEGCPGLISYDSSCASVKTSKIIGIDYHTETPNENLVPITKTIYHLGIPCTGTTTTPLCGSGFYDPLANKCVTINTSSTSSVTKTTSHTTSKEVSFHSSISSQKTLIPKSIPSPYGPIKSQSIPTEMETSSEISSSEYAFSDVISTPSHSPYTKKHSSLNSSSYTSTVIHSLTSYSISQGIFSTSLSEQNITSKSSTDKFSTATSMSNNITQSSIIISQFSTNNENYTTTSMHTSSDKISTETLNNSISTTTSILFSNSSTILKNNTTIISSDKDTHYHPVNPTIVCSTNKTEIICASITQPSISNSNNHWSSSVLKFNSTTVRSTLPSSAGSNETSINVPFSSSTESNTSTSSTSTSNSKMVRSTLPSSAGSNETSISVPFSSSTESNTSTSSTSTSNSKMVRSTLPSSAGSNETSINVPFSSSTESNTSTSSTSTSNSKTVRSTPFSSAGIIMTSLSQRNNKSASSYASSNSKCYNTADSCRKVHSTPSYLLTSSYTSEGVDYDCSLVSTKLKINDTNCVNNKHTTKSCLKTSVTTTIPTLEIKTARKSSSNTIGLHSYPTSSPNKSISSAPIIGYISSFKTIKTASPSYQTSDLTTITTITSLNNPGSTAVENTHESNDKSRKTSSNDISSKHSVIKETKDAVESSNKSHQTNTLKCSSIIIASSSHNSYESLGGTTLTLTLSKVYSPQNNDTLPFLEISEVNPSRTVLPESSKMMQYLTSTEERNKTARNTIATNIVSISTFHFEGEGNAIRMGYTQLLLMLIGIIVMNIGT",glycan array binding signal (z-score),[1],-0.199
same,glycan array binding signal (z-score),[2],-0.134
same,glycan array binding signal (z-score),[3],0.126
same,glycan array binding signal (z-score),[4],-0.329
same,glycan array binding signal (z-score),[5],-0.29
same,glycan array binding signal (z-score),[6],-0.478
same,glycan array binding signal (z-score),[7],-0.128
same,glycan array binding signal (z-score),[8],-0.217
same,glycan array binding signal (z-score),[9],-0.325
same,glycan array binding signal (z-score),[10],-0.279
same,glycan array binding signal (z-score),[11],-0.043
same,glycan array binding signal (z-score),[12],-0.29
same,glycan array binding signal (z-score),[13],-0.151
same,glycan array binding signal (z-score),[14],-0.164
same,glycan array binding signal (z-score),[15],-0.307
same,glycan array binding signal (z-score),[16],-0.326
same,glycan array binding signal (z-score),[17],-0.236
same,glycan array binding signal (z-score),[18],-0.209
same,glycan array binding signal (z-score),[19],-0.206
same,glycan array binding signal (z-score),[20],0.341
same,glycan array binding signal (z-score),[21],-0.362
same,glycan array binding signal (z-score),[22],-0.379
same,glycan array binding signal (z-score),[23],-0.131
same,glycan array binding signal (z-score),[24],-0.163
same,glycan array binding signal (z-score),[25],-0.487
same,glycan array binding signal (z-score),[26],-0.185
same,glycan array binding signal (z-score),[27],-0.369
same,glycan array binding signal (z-score),[28],-0.327
same,glycan array binding signal (z-score),[29],-0.335
same,glycan array binding signal (z-score),[30],0.412
